The list shows a part of the results.
T1: UNK ZnF1-3 (human, UniProt Q9C0B0 31-174)
T1 sequence: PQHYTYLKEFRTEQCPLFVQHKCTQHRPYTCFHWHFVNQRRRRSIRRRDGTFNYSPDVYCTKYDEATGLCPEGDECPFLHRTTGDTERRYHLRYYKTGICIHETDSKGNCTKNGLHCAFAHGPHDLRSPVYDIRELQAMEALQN

B1: 107048173_107050487_268_CDS_ENSMUSG00000018433_ENSMUST00000018577|mouse|control|control (ssRNA)
RNA: GGGAGUUCUACAGUCCGACGAUCAGGGCAUGUUAUACUCUGACCUUGCUUCACCGACCAGCUGCCCAACGGUUUCUGGUCAGAAACCUUGUAAAGGACGACGGUCCUGCCGCUGUCCGUCACUAGGAACUGGUCGGCUUUGUCCAACAGAGGAUUGAGCAUCA
B2: chr2:217002811:217002812:+_ENSG00000079246_ENST00000392132|hu_mus|FALSE|FALSE (ssRNA)
RNA: GGGAGUUCUACAGUCCGACGAUCCAGCGAGGAAAACAUGUAUUGCCGCAAGUCUUCCAUGAAAGGCAGCUGCACAUAAACUAAACACUCAUAGGCGUCCUUAAUGUAAGGGAAGGCUACACCAACUUGAGGAUUAGAUCUUUUCAACAGAGGAUUGAGCAUCA
B3: chr15:96202663:96202664:+_ENSMUSG00000033237_ENSMUST00000096250|mus_hu|motif|central (ssRNA)
RNA: GGGAGUUCUACAGUCCGACGAUCUAUACUGCUCACAGAUGAACCACCCAAAGUUAAUACAGGUCCAUUAGAAAUUCUUUCGGGUUGAUCACCUUUGGCAGUAUCUUGCUGAGUGAUAUCUAAAGUCCCUUGUGGUUCCAUUGGCAACAGAGGAUUGAGCAUCA
B4: chr3:41267201:41267202:+_ENSG00000168036_ENST00000349496|hu_hu|FALSE|FALSE (ssRNA)
RNA: GGGAGUUCUACAGUCCGACGAUCCAAGAAUUUAACAUUUGUUUUGUUGAGCAAGGCAACCAUUUUCUGCAGCCCACCAGCUAAACGCACUGCCAUUUUAGCUCCUUCUUGAUGUAAUAAAAGGUUGUGGAGAGUUGUAAUGGCCAACAGAGGAUUGAGCAUCA
B5: 42858823_42859980_4589_CDS_ENSG00000105429_ENST00000334370|human|control|control (ssRNA)
RNA: GGGAGUUCUACAGUCCGACGAUCGGCAGAGCCCACCGAAGCAUUGAAGCCCCAGGAUGAGGAGCCAUUGGCCUCCCAGUGCAGCACGAGCAGCCCAGACAGGGCCUGAACAGUGAGGGGCCUGUCCCGUCGCUGGCCGCAGAACAACAGAGGAUUGAGCAUCA
B6: chr1:66480114:66480115:+_ENSMUSG00000015222_ENSMUST00000024639|mus_hu|mus_mus_mus_hu_True|1_98 (ssRNA)
RNA: GGGAGUUCUACAGUCCGACGAUCUGGCCUGUGGCGGAUGUUCUUUAGAGAGCCACAUUUGGAUGUCACAUGGCUUAGGUCUAUUUUCUUGGUAACAAUUUGUACCUGCCCCCCUUUAGGCUGGUAUUUGAUGUUGUCAGUUGACAACAGAGGAUUGAGCAUCA
B7: chr2:46810187:46810188:+_ENSG00000119729_ENST00000238738|hu_hu|FALSE|FALSE (ssRNA)
RNA: GGGAGUUCUACAGUCCGACGAUCAAUGUGUAAUAGUUUACUGUUGUAAUUCGUUUAUACCAUGUGUUGGACAACUCAGCUAAUAUGUUAAUUGAUUUAUACAAUUCCUUUCAAUUUUAUCUAAAAAUAAGCAGACCAAAAUUACAACAGAGGAUUGAGCAUCA
B8: chr16:94913438:94913439:+_ENSMUSG00000022897_ENSMUST00000122284|mus_mus|FALSE|FALSE (ssRNA)
RNA: GGGAGUUCUACAGUCCGACGAUCCAGGGAUGUCAUGGAGUGGUGACUGUGGCCAACCUCCAUAGAAUCCUGGGUAGAGGAGCUAUUUGUUGGAGAAUUGUAGACCCUUGGCCUGGUCCGGUUACCCAAGGCUUGCUGUCCAUGCAACAGAGGAUUGAGCAUCA
B9: chr2:60072956:60072957:+_ENSMUSG00000026977_ENSMUST00000102748|mus_hu|FALSE|FALSE (ssRNA)
RNA: GGGAGUUCUACAGUCCGACGAUCCGCACUUUUAGUUUUAUCACUUUUACCAUCAGCUGAAUUCCAACCUGAAGGAAUAAUAUCUACUGUGAUCAUGACAUUGUCGGUCAAAUUACUCCCAAGUGCUGGAGGGACUGCAAACCGCAACAGAGGAUUGAGCAUCA
B10: chr4:103806524:103806525:+_ENSG00000145354_ENST00000273986|hu_hu|FALSE|FALSE (ssRNA)
RNA: GGGAGUUCUACAGUCCGACGAUCUUCAUUGUGUUUAUUAUGUGAACCAUCGCAGGCAGGAAACGUUUUAGAACGCCAACACCUACAAUAAGCUGCUUUAGUAAGACACAAAUCUUCAAUGUUUAUUUCAUUCACUACUUUCGGCAACAGAGGAUUGAGCAUCA
B11: 131292330_131293032_335_3pUTR_ENSMUSG00000049047_ENSMUST00000081834|mouse|control|control (ssRNA)
RNA: GGGAGUUCUACAGUCCGACGAUCCUUCUUCAAGUCACUUCAAGGCCACAGUAAUUGCUUACAGAGGUAAACCUCCUUAAAACAGCAGCUUGCCCCUUCUUCCUUUCCUGUGGGUUAUGCCACGCCCAACAGUCUUUCUGAUCUCAACAGAGGAUUGAGCAUCA
B12: chr12:42180722:42180723:-_ENSMUSG00000036295_ENSMUST00000043884|mus_hu|mus_mus_mus_hu_True|38_88 (ssRNA)
RNA: GGGAGUUCUACAGUCCGACGAUCCUGUAGGAGAAGAAUCUGUGUGUCGGCAGGCAAUCUGGCUGGGAAAGUUAAAAGACCUAAAUCAUUACAAUCCACUGUCGAUGCUUCCAUAUAAAUGGAUCUGGGUGUAAACCAAGGCCUCAACAGAGGAUUGAGCAUCA
B13: 85785137_85785257_2890_3pUTR_ENSG00000153904_ENST00000284031|human|control|control (ssRNA)
RNA: GGGAGUUCUACAGUCCGACGAUCGUAAGCCUAAACUGGCAGAUUGGGCCAUUUUUCCUGUGGUUGUAUUUGAGAUGUUGAGCUCUCACAGGGAGAAUUUUUGCUUUUGCCAAGGAAGGGCCAGAUUUAACCCAAAAGGACAACCAACAGAGGAUUGAGCAUCA
B14: 183092267_183096352_435_3pUTR_ENSMUSG00000062169_ENSMUST00000134115|mouse|control|control (ssRNA)
RNA: GGGAGUUCUACAGUCCGACGAUCGGCUUCUCCAGCUUCAGUCAUUUAUCAAAGCUAGAAUCAUACUAUAGAGAUACAUGAAGAAACAGAGCAGGUAGAAACCAAGCUUGAUCAUGGCUUCUUUCAUGUGUGACUUUAACUGUCCAACAGAGGAUUGAGCAUCA
B15: chr6:41757443:41757444:+_ENSG00000214736_ENST00000398881|hu_mus|hu_hu_hu_mus_False|1_28 (ssRNA)
RNA: GGGAGUUCUACAGUCCGACGAUCGAACCGUGCAGAGGCAACAUCUCAGCCGACACUGGGGGAUGGGGGGGCAGUGGGGGGGGGUUCAGGCAAGGAGAGGGAGUCAACCCAUCUGAACACUCAGGUAGGAUCUUGUGGGGCACACAACAGAGGAUUGAGCAUCA
B16: 3726484_3727692_3388_CDS_ENSG00000110713_ENST00000324932|human|control|control (ssRNA)
RNA: GGGAGUUCUACAGUCCGACGAUCGAUUUCUUGAGAAGUAUCUGCUUUGGAAGGCAGGCGACUGAAGCGUUGAUCCAGUGCCAUAUCUACAUCUUCUUCAUCAGUAAGCAAUGAUGCUUUCAUGAUCUGUAAGACAUGUGGAUUCAACAGAGGAUUGAGCAUCA
B17: chr8:104447970:104447971:+_ENSG00000164934_ENST00000297579|hu_hu|hu_hu_hu_mus_False|58_78 (ssRNA)
RNA: GGGAGUUCUACAGUCCGACGAUCAUACACUUCCCUGCUUCGGCUCUUGUCCACAGGAAAGAUUCGAAUAGACUUAUCGAAACUAGCAGACACAAAUUCCUUCCCAGUGGGAGAGUAGUCCACAUCAAGUACUGCAGACACGUGCAACAGAGGAUUGAGCAUCA
B18: chr7:149068622:149068623:-_ENSMUSG00000025139_ENSMUST00000001950|mus_hu|mus_mus_mus_hu_False|58_88 (ssRNA)
RNA: GGGAGUUCUACAGUCCGACGAUCGUGAGGCCUCUGAGUGUGGCUUGUGCUCUGCAGUGGGUUAGAGUUGUUAAUAUCACUAAGUGGACCAUCUAGAACGUUCCAGUCCCGCCUGACACCUUCAUUCCCAAUGGAGAAGAAAUCCAACAGAGGAUUGAGCAUCA
B19: chr7:116544294:116544295:+_ENSG00000198898_ENST00000458284|hu_hu|FALSE|FALSE (ssRNA)
RNA: GGGAGUUCUACAGUCCGACGAUCUACUUCACAGGGUCUUGGAUCAGUUGCCUCCUUCCUUAAGUGAUCAAAUUUAAAACAGAUUCUGUUCUUUGGAUCCAAAAACUUUCCAUUUCCCAAGUCGCCAUGUUCUGUUAUCAAUACCAACAGAGGAUUGAGCAUCA
B20: chr4:128986876:128986877:-_ENSMUSG00000057236_ENSMUST00000102598|mus_mus|FALSE|FALSE (ssRNA)
RNA: GGGAGUUCUACAGUCCGACGAUCGAUGGUGAGACAGGUCAACCAAAAUGGAGAUGGCAUCAAACUAUAGUGGUCAAAGACUAACCCCUAAAAAAGCAACUUUUAUCAAGGAUUAAUUUAAUCUUAAAAACAAACACAAACUAGCAACAGAGGAUUGAGCAUCA
B21: chr2:5814250:5814251:-_ENSMUSG00000025816_ENSMUST00000102981|mus_hu|mus_mus_mus_hu_True|58_108 (ssRNA)
RNA: GGGAGUUCUACAGUCCGACGAUCUUCCUUUCAGGCUUCUGAAUUUCUGGUAGAACUGCACAGAAUGGUUUGAUAACUUCUAAAAACUUGAUGCCCAUGGCUGCUGCUGGGGAGGCCCAGGGGGAAACCGCGGCCUCGGCGCUGCAACAGAGGAUUGAGCAUCA
B22: chr19:26852702:26852703:+_ENSMUSG00000024921_ENSMUST00000025862|mus_mus|FALSE|FALSE (ssRNA)
RNA: GGGAGUUCUACAGUCCGACGAUCAUUACUGGAAUUUUAUUUGCCUCAGGCUUAUGACUUGCAACCAAAGACAUUGUGCAAAGAAAGCAAAGAUUAAGUACACUUUCGGGAGAAGGAGACCAUACACAUUGGUAACACGGGAGACAACAGAGGAUUGAGCAUCA

biological target: T1, UNK ZnF1-3; assay: nsRBNS (natural sequence RNA bind-n-seq); RBNS binding buffer (assumed for nsRBNS): 25 mM Tris pH 7.5, 150 mM KCl, 3 mM MgCl2, 0.01% Triton X-100, 500 ug/ml BSA, 20 U/ml SUPERase-In, 4 C; UNK is unkempt and MSI1 is Musashi-1; names of the RNAs are library labels; protein concentration not given here; high values mean tight binding

Q: How did the binding signal turn out when B1 was run?
A: 0.177 enrichment R

Q: How did the binding signal turn out when B2 was run?
A: 1.17 enrichment R

Q: For B3, which binding signal is on record?
A: 0.342 enrichment R

Q: How did the binding signal turn out when B4 was run?
A: 1.15 enrichment R

Q: With B5 as the binder, how does the binding signal read?
A: 1.06 enrichment R

Q: With B6 as the binder, how does the binding signal read?
A: 0.499 enrichment R

Q: With B7 as the binder, how does the binding signal read?
A: 1.76 enrichment R

Q: Which binding signal does the source give for B8 here?
A: 0.551 enrichment R

Q: B9 was tested. Which binding signal did it give?
A: 0.723 enrichment R

Q: Which binding signal does the source give for B10 here?
A: 0.682 enrichment R

Q: How did the binding signal turn out when B11 was run?
A: 0.652 enrichment R

Q: How did the binding signal turn out when B12 was run?
A: 1.39 enrichment R

Q: Which binding signal does the source give for B13 here?
A: 1.06 enrichment R

Q: For B14, which binding signal is on record?
A: 0.926 enrichment R

Q: How did the binding signal turn out when B15 was run?
A: 2.21 enrichment R

Q: With B16 as the binder, how does the binding signal read?
A: 0.662 enrichment R

Q: With B17 as the binder, how does the binding signal read?
A: 0.827 enrichment R

Q: Which binding signal does the source give for B18 here?
A: 0.727 enrichment R

Q: For B19, which binding signal is on record?
A: 0.978 enrichment R

Q: How did the binding signal turn out when B20 was run?
A: 1.7 enrichment R

Q: For B21, which binding signal is on record?
A: 1.36 enrichment R

Q: Which binding signal does the source give for B22 here?
A: 1.64 enrichment R

Source: PMC12136788
